Results reported in patent US20260083855A1 (Hoffmann-La Roche, published 2026).

How the values were obtained:
[1] = target: T1, IL-2R on human cells (activated CD4 T cells, PBMC subsets, NK92) (human, UniProt P14784 27-551; P31785 23-369); experiment: cell-based or functional assay
T1 sequence (looked up) 1: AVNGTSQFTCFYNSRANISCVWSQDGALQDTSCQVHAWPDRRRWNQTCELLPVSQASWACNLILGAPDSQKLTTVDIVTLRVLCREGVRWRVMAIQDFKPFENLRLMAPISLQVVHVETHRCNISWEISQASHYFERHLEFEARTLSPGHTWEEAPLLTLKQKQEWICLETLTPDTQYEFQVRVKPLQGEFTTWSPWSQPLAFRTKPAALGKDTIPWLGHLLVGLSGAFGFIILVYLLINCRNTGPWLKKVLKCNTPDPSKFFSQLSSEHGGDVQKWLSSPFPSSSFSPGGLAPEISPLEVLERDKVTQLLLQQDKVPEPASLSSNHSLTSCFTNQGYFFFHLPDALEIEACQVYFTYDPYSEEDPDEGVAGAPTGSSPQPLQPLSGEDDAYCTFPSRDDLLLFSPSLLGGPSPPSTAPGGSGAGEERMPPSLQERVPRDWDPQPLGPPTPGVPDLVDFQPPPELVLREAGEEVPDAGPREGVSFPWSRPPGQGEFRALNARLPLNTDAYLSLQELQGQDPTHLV
T1 sequence (looked up) 2: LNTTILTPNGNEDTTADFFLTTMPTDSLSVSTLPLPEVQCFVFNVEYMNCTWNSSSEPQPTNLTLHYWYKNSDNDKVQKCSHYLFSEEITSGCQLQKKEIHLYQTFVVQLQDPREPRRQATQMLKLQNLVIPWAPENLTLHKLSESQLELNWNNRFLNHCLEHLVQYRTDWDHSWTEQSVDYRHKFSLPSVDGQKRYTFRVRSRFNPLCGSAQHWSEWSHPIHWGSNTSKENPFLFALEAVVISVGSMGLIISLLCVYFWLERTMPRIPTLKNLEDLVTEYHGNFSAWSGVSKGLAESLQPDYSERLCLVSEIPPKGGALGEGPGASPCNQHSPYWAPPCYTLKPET

[2] = target: T1, IL-2R on human cells (activated CD4 T …); experiment: cell-based or functional assay; remark: listed apart in the source
[3] = target: T1, IL-2R on human cells (activated CD4 T …); experiment: cell-based or functional assay; remark: listed apart in the source
[4] = target: T2, hu IL2R beta-gamma-Fc (P1AD7029-002) (human, UniProt P14784 27-240; P31785 23-262); experiment: SPR, captured via anti-human Fc, IL2Rbg-Fc analyte, 1:1 Langmuir
T2 construct: Analyte in all SPR runs; also called human IL2R beta-gamma Fc; recombinant human IL2Rbeta-gamma-Fc heterodimer; not shown: Fc part and any linker of the heterodimer
T2 sequence (looked up) 1: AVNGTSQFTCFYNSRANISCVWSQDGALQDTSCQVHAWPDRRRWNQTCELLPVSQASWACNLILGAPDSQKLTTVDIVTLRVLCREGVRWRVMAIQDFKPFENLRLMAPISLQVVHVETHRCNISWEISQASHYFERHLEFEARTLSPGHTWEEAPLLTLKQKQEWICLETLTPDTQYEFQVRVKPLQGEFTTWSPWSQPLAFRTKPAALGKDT
T2 sequence (looked up) 2: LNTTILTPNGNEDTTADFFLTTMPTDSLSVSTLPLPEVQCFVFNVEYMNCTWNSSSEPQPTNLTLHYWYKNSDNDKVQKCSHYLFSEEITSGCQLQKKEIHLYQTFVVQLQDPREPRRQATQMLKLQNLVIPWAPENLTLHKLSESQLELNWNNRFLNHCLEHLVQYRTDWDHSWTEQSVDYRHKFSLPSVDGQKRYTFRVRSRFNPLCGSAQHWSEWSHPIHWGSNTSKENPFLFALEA
Description: (§1) Bulk refractive index differences were corrected for by subtracting the response obtained on the reference flow cell 1.

[5] = target: T2, hu IL2R beta-gamma-Fc (P1AD7029-002); experiment: SPR, supernatant captured by anti-human Fab (142 RU), single injection of IL2Rbg-Fc
Description: as §1

[6] = target: T1, IL-2R on human cells (activated CD4 T …); experiment: cell-based or functional assay; remark: listed apart in the source
[7] = target: T3, human PD-1 on activated CD4 T cells (human, UniProt Q15116 25-288); experiment: cell-based or functional assay
[8] = target: T1, IL-2R on human cells (activated CD4 T …); experiment: cell-based or functional assay; design: AUC of STAT5-P on PD1+ T cells / AUC of STAT5-P on PD1-blocked T cells: unit not given beside the values
[9] = target: T3, human PD-1 on activated CD4 T cells; experiment: cell-based or functional assay; design: AUC of STAT5-P on PD1+ T cells / AUC of STAT5-P on PD1-blocked T cells: unit not given beside the values
T3 sequence (Q15116 25-288 limits assumed): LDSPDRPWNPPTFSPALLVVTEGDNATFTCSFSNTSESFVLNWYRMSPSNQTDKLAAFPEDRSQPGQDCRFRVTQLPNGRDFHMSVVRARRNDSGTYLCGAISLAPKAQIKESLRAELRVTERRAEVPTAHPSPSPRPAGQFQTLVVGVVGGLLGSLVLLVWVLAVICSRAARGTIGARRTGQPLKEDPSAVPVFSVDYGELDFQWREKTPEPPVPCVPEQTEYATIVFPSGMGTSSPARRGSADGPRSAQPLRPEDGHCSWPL

B1: FAP 4B9 IgG-huIL2v_Q126T (P1AE4812) (other)
light: EIVLTQSPGTLSLSPGERATLSCRASQSVTSSYLAWYQQKPGQAPRLLINVGSRRATGIPDRFSGSGSGTDFTLTISRLEPEDFAVYYCQQGIMLPPTFGQGTKVEIKRTVAAPSVFIFPPSDEQLKSGTASVVCLLNNFYPREAKVQWKVDNALQSGNSQESVTEQDSKDSTYSLSSTLTLSKADYEKHKVYACEVTHQGLSSPVTKSFNRGEC
heavy 1: EVQLLESGGGLVQPGGSLRLSCAASGFTFSSYAMSWVRQAPGKGLEWVSAIIGSGASTYYADSVKGRFTISRDNSKNTLYLQMNSLRAEDTAVYYCAKGWFGGFNYWGQGTLVTVSSASTKGPSVFPLAPSSKSTSGGTAALGCLVKDYFPEPVTVSWNSGALTSGVHTFPAVLQSSGLYSLSSVVTVPSSSLGTQTYICNVNHKPSNTKVDKKVEPKSCDKTHTCPPCPAPEAAGGPSVFLFPPKPKDTLMISRTPEVTCVVVDVSHEDPEVKFNWYVDGVEVHNAKTKPREEQYNSTYRVVSVLTVLHQDWLNGKEYKCKVSNKALGAPIEKTISKAKGQPREPQVCTLPPSRDELTKNQVSLSCAVKGFYPSDIAVEWESNGQPENNYKTTPPVLDSDGSFFLVSKLTVDKSRWQQGNVFSCSVMHEALHNHYTQKSLSLSPGK
heavy 2: EVQLLESGGGLVQPGGSLRLSCAASGFTFSSYAMSWVRQAPGKGLEWVSAIIGSGASTYYADSVKGRFTISRDNSKNTLYLQMNSLRAEDTAVYYCAKGWFGGFNYWGQGTLVTVSSASTKGPSVFPLAPSSKSTSGGTAALGCLVKDYFPEPVTVSWNSGALTSGVHTFPAVLQSSGLYSLSSVVTVPSSSLGTQTYICNVNHKPSNTKVDKKV[human IgG1 Fc with changes not written out]GGGGSGGGGSGGGGSGGGGSGGGGSAPASSSTKKTQLQLEHLLLDLQMILNGINNYKNPKLTRMLTAKFAMPKKATELKHLQCLEEELKPLEEVLNGAQSKNFHLRPRDLISNINVIVLELKGSETTFMCEYADETATIVEFLNRWITFATSIISTLT
notes: Immunoconjugate: anti-FAP IgG1 PG LALA knob/hole, IL2v variant on the knob heavy chain; also called FAP-IL2vQ126T
Percentage of internalization (0.6 nM, activated CD4 T cells, 3 h at 37 C) [1]: 76.6% | fold decrease in STAT5-P potency against untargeted IL2v (FAP-IL2v) [2]: 6.5 fold | Potency reduction versus PD1-IL2v (MFI) [3]: 44.7 fold | Potency reduction versus PD1-IL2v (frequency) [3]: 82.1 fold | Kd [4]: 45 nM | koff [4]: 0.000737 s⁻¹ | kon [4]: 16600 M⁻¹ s⁻¹

B2: PD1 376 IgG-huIL2v T51P (P1AE0492) (other)
light: DIVMTQSPDSLAVSLGERATINCKASESVDTSDNSFIHWYQQKPGQSPKLLIYRSSTLESGVPDRFSGSGSGTDFTLTISSLQAEDVAVYYCQQNYDVPWTFGQGTKVEIKRTVAAPSVFIFPPSDEQLKSGTASVVCLLNNFYPREAKVQWKVDNALQSGNSQESVTEQDSKDSTYSLSSTLTLSKADYEKHKVYACEVTHQGLSSPVTKSFNRGEC
heavy 1: EVQLLESGGGLVQPGGSLRLSCAASGFSFSSYTMSWVRQAPGKGLEWVATISGGGRDIYYPDSVKGRFTISRDNSKNTLYLQMNSLRAEDTAVYYCVLLTGRVYFALDSWGQGTLVTVSSASTKGPSVFPLAPSSKSTSGGTAALGCLVKDYFPEPVTVSWNSGALTSGVHTFPAVLQSSGLYSLSSVVTVPSSSLGTQTYICNVNHKPSNTKVDKKVEPKSCDKTHTCPPCPAPEAAGGPSVFLFPPKPKDTLMISRTPEVTCVVVDVSHEDPEVKFNWYVDGVEVHNAKTKPREEQYNSTYRVVSVLTVLHQDWLNGKEYKCKVSNKALGAPIEKTISKAKGQPREPQVCTLPPSRDELTKNQVSLSCAVKGFYPSDIAVEWESNGQPENNYKTTPPVLDSDGSFFLVSKLTVDKSRWQQGNVFSCSVMHEALHNHYTQKSLSLSPGK
heavy 2: EVQLLESGGGLVQPGGSLRLSCAASGFSFSSYTMSWVRQAPGKGLEWVATISGGGRDIYYPDSVKGRFTISRDNSKNTLYLQMNSLRAEDTAVYYCVLLTGRVYFALDSWGQGTLVTVSSASTKGPSVFPLAPSSKSTSGGTAALGCLVKDYFPEPVTVSWNSGALTSGVHTFPAVLQSSGLYSLSSVVTVPSSSLGTQTYICNVNHKPSNTKVDKKV[human IgG1 Fc with changes not written out]GGGGSGGGGSGGGGSAPASSSTKKTQLQLEHLLLDLQMILNGINNYKNPKLTRMLTAKFAMPKKAPELKHLQCLEEELKPLEEVLNGAQSKNFHLRPRDLISNINVIVLELKGSETTFMCEYADETATIVEFLNRWITFAQSIISTLT
notes: Immunoconjugate; tested from HEK supernatant only
binding result [5]: no binding (tested: 300 nM)

B3: huPD1-IL2v (w/ huPD1-Lead 0376) (P1AD5438) (other)
light: DIVMTQSPDSLAVSLGERATINCKASESVDTSDNSFIHWYQQKPGQSPKLLIYRSSTLESGVPDRFSGSGSGTDFTLTISSLQAEDVAVYYCQQNYDVPWTFGQGTKVEIKRTVAAPSVFIFPPSDEQLKSGTASVVCLLNNFYPREAKVQWKVDNALQSGNSQESVTEQDSKDSTYSLSSTLTLSKADYEKHKVYACEVTHQGLSSPVTKSFNRGEC
heavy 1: EVQLLESGGGLVQPGGSLRLSCAASGFSFSSYTMSWVRQAPGKGLEWVATISGGGRDIYYPDSVKGRFTISRDNSKNTLYLQMNSLRAEDTAVYYCVLLTGRVYFALDSWGQGTLVTVSSASTKGPSVFPLAPSSKSTSGGTAALGCLVKDYFPEPVTVSWNSGALTSGVHTFPAVLQSSGLYSLSSVVTVPSSSLGTQTYICNVNHKPSNTKVDKKVEPKSCDKTHTCPPCPAPEAAGGPSVFLFPPKPKDTLMISRTPEVTCVVVDVSHEDPEVKFNWYVDGVEVHNAKTKPREEQYNSTYRVVSVLTVLHQDWLNGKEYKCKVSNKALGAPIEKTISKAKGQPREPQVCTLPPSRDELTKNQVSLSCAVKGFYPSDIAVEWESNGQPENNYKTTPPVLDSDGSFFLVSKLTVDKSRWQQGNVFSCSVMHEALHNRFTQKSLSLSPGK
heavy 2: EVQLLESGGGLVQPGGSLRLSCAASGFSFSSYTMSWVRQAPGKGLEWVATISGGGRDIYYPDSVKGRFTISRDNSKNTLYLQMNSLRAEDTAVYYCVLLTGRVYFALDSWGQGTLVTVSSASTKGPSVFPLAPSSKSTSGGTAALGCLVKDYFPEPVTVSWNSGALTSGVHTFPAVLQSSGLYSLSSVVTVPSSSLGTQTYICNVNHKPSNTKVDKKV[human IgG1 Fc with changes not written out]GGGGSGGGGSGGGGSAPASSSTKKTQLQLEHLLLDLQMILNGINNYKNPKLTRMLTAKFAMPKKATELKHLQCLEEELKPLEEVLNGAQSKNFHLRPRDLISNINVIVLELKGSETTFMCEYADETATIVEFLNRWITFAQSIISTLT
Percentage of internalization (0.6 nM, activated CD4 T cells, 3 h at 37 C) [1]: 71.1% | Potency reduction vs PD1-IL2v on PD-1+ LAG-3+ T cells [6]: 1 fold | Cis-delivery: fold increase in EC50, EC50 [PD1/LAG-3 bl.]/EC50 [PD1+/LAG-3+] [7]: 158 fold | Potency reduction versus PD1-IL2v (MFI) [3]: 1 fold | Potency reduction versus PD1-IL2v (frequency) [3]: 1 fold | AUC of STAT5-P on PD1+ T cells [8]: 221 | AUC of STAT5-P on PD1-blocked T cells [8]: 124 | Potency reduction vs PD1-IL2v [8]: 1 fold | Cis-delivery: fold increase in EC50, EC50 [with PD1bl]/EC50 [PD1+] [9]: 18.9 fold
